Measured values from patent US20250263409A1, “FGFR2 INHIBITOR COMPOUNDS” (ELI LILLY AND COMPANY, priority 2022, published 2025).
Some entries share one result that the patent states for a list of compounds.

Molecular target: T1, human wild type FGFR1 (Homo sapiens, UniProt P11362)
T1 construct: expressed in transfected cells; host or cells: HEK293
Experiment: FGFR1 cell-based assay (phospho-FGFR positive cells)
Details: dox-inducible HEK293 cells; IC50 FGFR1 divided by IC50 FGFR2

T1 sequence (P11362 22-822): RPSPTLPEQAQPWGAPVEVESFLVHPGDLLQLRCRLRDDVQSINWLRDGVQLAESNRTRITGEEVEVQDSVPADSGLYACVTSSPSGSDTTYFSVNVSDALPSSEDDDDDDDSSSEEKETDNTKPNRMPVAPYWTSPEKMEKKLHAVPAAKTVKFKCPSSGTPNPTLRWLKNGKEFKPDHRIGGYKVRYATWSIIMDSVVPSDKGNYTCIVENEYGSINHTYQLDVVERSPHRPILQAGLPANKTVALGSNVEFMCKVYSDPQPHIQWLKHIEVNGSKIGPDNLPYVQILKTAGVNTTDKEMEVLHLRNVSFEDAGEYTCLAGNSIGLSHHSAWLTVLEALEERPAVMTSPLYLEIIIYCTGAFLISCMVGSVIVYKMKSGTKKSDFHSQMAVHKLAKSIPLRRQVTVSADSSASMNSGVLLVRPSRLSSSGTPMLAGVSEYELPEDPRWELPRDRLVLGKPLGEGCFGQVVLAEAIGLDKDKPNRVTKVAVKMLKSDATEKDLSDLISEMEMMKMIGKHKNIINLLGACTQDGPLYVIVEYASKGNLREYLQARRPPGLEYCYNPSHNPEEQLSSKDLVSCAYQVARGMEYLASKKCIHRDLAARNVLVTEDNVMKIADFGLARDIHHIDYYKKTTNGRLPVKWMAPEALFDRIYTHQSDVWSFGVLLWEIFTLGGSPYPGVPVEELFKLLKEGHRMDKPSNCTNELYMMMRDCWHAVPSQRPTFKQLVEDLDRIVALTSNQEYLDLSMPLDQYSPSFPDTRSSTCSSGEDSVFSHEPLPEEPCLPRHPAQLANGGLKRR

Row | SMILES | fold more selective for FGFR2 than for FGFR1, cell-based assays
1 | COC(COc1cc(-c2nnn(C3CCN(C4COC4)CC3)c2C)cn2ncc(C#N)c12)c1ncccc1C (single isomer, unassigned; isomer 1) [Example 10, 4-[2-Methoxy-2-(3-methyl-2-pyridyl)ethoxy]-6-[5-methyl-1-[1-(oxetan-3-yl)-4-piperidyl]triazol-4-yl]pyrazolo[1,5-a]pyridine-3-carbonitrile, Isomer 1] | at least 5 fold
2 | COC(COc1cc(-c2nnn(C3CCN(C4COC4)CC3)c2C)cn2ncc(C#N)c12)c1ncccc1Cl (single isomer, unassigned; isomer 1) [Example 11, 4-[2-(3-Chloro-2-pyridyl)-2-methoxy-ethoxy]-6-[5-methyl-1-[1-(oxetan-3-yl)-4-piperidyl]triazol-4-yl]pyrazolo[1,5-a]pyridine-3-carbonitrile, Isomer 1] | at least 5 fold
3 | Cc1c(-c2cc(OC(C)c3cn(C(C)C)nn3)c3c(C#N)cnn3c2)nnn1C1CCN(C2COC2)CC1 (single isomer, unassigned; isomer 1) [Example 34, 4-[1-(1-Isopropyltriazol-4-yl)ethoxy]-6-[5-methyl-1-[1-(oxetan-3-yl)-4-piperidyl]triazol-4-yl]pyrazolo[1,5-a]pyridine-3-carbonitrile, Isomer 1] | at least 5 fold
4 | Cc1c(-c2cc(OCC(C)(O)c3ccc(F)cn3)c3c(Cl)cnn3c2)nnn1[C@H]1CCN(C2COC2)C[C@H]1F (single isomer, unassigned; isomer 1) [Example 57] | at least 5 fold
5 | COC(COc1cc(-c2nnn(C3CC(N4CCN(C5COC5)CC4)C3)c2C)cc2ncc(Cl)n12)c1ncc(F)cc1F (single isomer, unassigned; isomer 1) [Example 64, 3-Chloro-5-[2-(3,5-difluoro-2-pyridyl)-2-methoxy-ethoxy]-7-[5-methyl-cis-1-[3-[4-(oxetan-3-yl)piperazin-1-yl]cyclobutyl]triazol-4-yl] imidazo[1,2-a]pyridine, Isomer 1] | at least 5 fold
6 | Cc1c(-c2cc(OCC(c3ccc(F)cn3)N3CCCC3)c3c(C#N)cnn3c2)nnn1C1CCN(C2COC2)CC1 (single isomer, unassigned; isomer 2) [Example 27, 4-[2-(5-Fluoro-2-pyridyl)-2-pyrrolidin-1-yl-ethoxy]-6-[5-methyl-1-[1-(oxetan-3-yl)-4-piperidyl]triazol-4-yl]pyrazolo[1,5-a]pyridine-3-carbonitrile, Isomer 2] | at least 5 fold
7 | COC(COc1cc(-c2nnn(C3CCN(C4COC4)CC3)c2C)cn2ncc(F)c12)c1ncc(F)cc1F (single isomer, unassigned; isomer 2) [Example 40, 4-[2-(3,5-Difluoro-2-pyridyl)-2-methoxy-ethoxy]-3-fluoro-6-[5-methyl-1-[1-(oxetan-3-yl)-4-piperidyl]triazol-4-yl]pyrazolo[1,5-a]pyridine, Isomer 2] | at least 5 fold
8 | Cc1c(-c2cc(OCC(OC(C)C)c3ccc(F)cn3)c3c(C#N)cnn3c2)nnn1C1CCN(C2COC2)CC1 (single isomer, unassigned; isomer 2) [Example 47, 4-[2-(5-Fluoro-2-pyridyl)-2-isopropoxy-ethoxy]-6-[5-methyl-1-[1-(oxetan-3-yl)-4-piperidyl]triazol-4-yl]pyrazolo [1,5-a]pyridine-3-carbonitrile, Isomer 2] | at least 5 fold
9 | Cc1c(-c2cc(OCC(O)c3ccc(F)cn3)c3c(F)cnn3c2)nnn1C1CCN(C2COC2)CC1 (single isomer, unassigned; isomer 2) [Example 49, 2-[3-Fluoro-6-[5-methyl-1-[1-(oxetan-3-yl)-4-piperidyl]triazol-4-yl]pyrazolo [1,5-a]pyridin-4-yl]oxy-1-(5-fluoro-2-pyridyl) ethanol, Isomer 2] | at least 5 fold
10 | Cc1c(-c2cc(OCC(O)c3ccsn3)c3c(Cl)cnn3c2)nnn1C1CCN(C2COC2)CC1 (single isomer, unassigned; isomer 2) [Example 50, 2-[3-Chloro-6-[5-methyl-1-[1-(oxetan-3-yl)-4-piperidyl]triazol-4-yl]pyrazolo[1,5-a]pyridin-4-yl]oxy-1-isothiazol-3-yl-ethanol, Isomer 2] | at least 5 fold
11 | COC(COc1cc(-c2nnn(C3(C)CCN(C4COC4)CC3)c2C)cc2ncc(Cl)n12)c1ncc(F)cc1F (single isomer, unassigned; isomer 2) [Example 55, 3-Chloro-5-[2-(3,5-difluoro-2-pyridyl)-2-methoxy-ethoxy]-7-[5-methyl-1-[4-methyl-1-(oxetan-3-yl)-4-piperidyl]triazol-4-yl]imidazo [1,2-a]pyridine, Isomer 2] | at least 5 fold
12 | COC(COc1cc(-c2nnn([C@H]3C[C@H](N4CCN(C5COC5)CC4)C3)c2C)cc2ncc(Cl)n12)c1ncc(F)cc1F (single isomer, unassigned; isomer 2) [Example 65, 3-Chloro-5-(2-(3,5-difluoro-pyridin-2-yl)-2-methoxyethoxy)-7-(5-methyl-1-((1r,3r)-3-(4-(oxetan-3-yl)piperazin-1-yl)cyclobutyl)-1H-1,2,3-triazol-4-yl)imidazo[1,2-a] pyridine, Isomer 2] | at least 5 fold
13 | Cc1c(-c2cc(OCC(O)c3ccc(F)cc3F)c3c(C#N)cnn3c2)nnn1C1CCN(C2COC2)CC1 (single isomer, unassigned; isomer 2) [Example 79, 4-[2-(2,4-Difluorophenyl)-2-hydroxy-ethoxy]-6-[5-methyl-1-[1-(oxetan-3-yl)-4-piperidyl]triazol-4-yl]pyrazolo[1,5-a]pyridine-3-carbonitrile, Isomer 2] | at least 5 fold
14 | COC(COc1cc(-c2nnn(C3CN(C4COC4)C3)c2C)cn2ncc(Cl)c12)c1ccc(F)cn1 (single isomer, unassigned; isomer 2) [Example 82, 3-Chloro-4-[2-(5-fluoro-2-pyridyl)-2-methoxy-ethoxy]-6-[5-methyl-1-[1-(oxetan-3-yl)azetidin-3-yl]triazol-4-yl]pyrazolo[1,5-a]pyridine, Isomer 2] | at least 5 fold
15 | Cc1c(-c2cc(OC(C)c3cncc(C4CC4)n3)c3c(C#N)cnn3c2)nnn1C1CCN(C2COC2)CC1 (single isomer, unassigned; isomer 2) [Example 92, 4-[1-(6-Cyclopropylpyrazin-2-yl)ethoxy]-6-[5-methyl-1-[1-(oxetan-3-yl)-4-piperidyl]triazol-4-yl]pyrazolo[1,5-a]pyridine-3-carbonitrile, Isomer 2] | at least 5 fold
16 | COC(CNc1cc(-c2nnn(C3CCN(C4COC4)CC3)c2C)cn2ncc(C#N)c12)c1ccc(F)cn1 (stereo not shown) [Example 1, 4-[[2-(5-Fluoro-2-pyridyl)-2-methoxy-ethyl]amino]-6-[5-methyl-1-[1-(oxetan-3-yl)-4-piperidyl]triazol-4-yl]pyrazolo[1,5-a]pyridine-3-carbonitrile] | at least 5 fold
17 | Cc1c(-c2cc(OC(C)c3cncc4cc(F)ccc34)c3c(C#N)cnn3c2)nnn1C1CCN(C2COC2)CC1 (stereo not shown) [Example 2, 4-[1-(7-Fluoro-4-isoquinolyl)ethoxy]-6-[5-methyl-1-[1-(oxetan-3-yl)-4-piperidyl]triazol-4-yl]pyrazolo[1,5-a]pyridine-3-carbonitrile] | at least 5 fold
18 | Cc1c(-c2cc(OCC(O)c3ccc(F)cc3F)c3c(C#N)cnn3c2)nnn1C1CCN(C2COC2)CC1 (stereo not shown) [Example 48, 4-[2-(2,4-Difluorophenyl)-2-hydroxy-ethoxy]-6-[5-methyl-1-[1-(oxetan-3-yl)-4-piperidyl]triazol-4-yl]pyrazolo [1,5-a]pyridine-3-carbonitrile] | at least 5 fold
19 | Cc1c(-c2cc(O[C@H](C)c3ccccn3)c3c(C#N)cnn3c2)cnn1C1CCN(C2CC(C)(C)OC(C)(C)C2)CC1 [Example 73, 6-[5-Methyl-1-[1-(2,2,6,6-tetramethyltetrahydropyran-4-yl)-4-piperidyl]pyrazol-4-yl]-4-[(1R)-1-(2-pyridyl)ethoxy]pyrazolo[1,5-a]pyridine-3-carbonitrile] | at least 5 fold

Molecular target: T2, FGFR1 (Homo sapiens, UniProt P11362)
T2 construct: purchased ThermoFisher Scientific PR4660A
Experiment: FGFR1 enzyme assay (KinEASE-TK HTRF)
Type: biochemical
Details: IC50 FGFR1 divided by IC50 FGFR2

T2 sequence (P11362 22-822): as above

Row | SMILES | fold more selective for FGFR2 than for FGFR1, enzyme assays
20 | Cc1cnc(C)c(C(C)Oc2cc(-c3nnn(C4CCN(C5COC5)CC4)c3C)cn3ncc(C#N)c23)n1 (single isomer, unassigned; isomer 1) [Example 19, 4-[1-(3,6-Dimethylpyrazin-2-yl)ethoxy]-6-[5-methyl-1-[1-(oxetan-3-yl)-4-piperidyl]triazol-4-yl]pyrazolo[1,5-a]pyridine-3-carbonitrile, Isomer 1] | at least 3 fold
21 | Cc1nc(C(C)Oc2cc(-c3nnn(C4CCN(C5COC5)CC4)c3C)cn3ncc(C#N)c23)c(C)s1 (single isomer, unassigned; isomer 1) [Example 23, 4-[1-(2,5-Dimethylthiazol-4-yl)ethoxy]-6-[5-methyl-1-[1-(oxetan-3-yl)-4-piperidyl]triazol-4-yl]pyrazolo[1,5-a]pyridine-3-carbonitrile, Isomer 1] | at least 3 fold
22 | Cc1c(-c2cc(OCC(O)c3ccc(F)cn3)c3c(C#N)cnn3c2)nnn1C1CCN(C2COC2)CC1 (single isomer, unassigned; isomer 2) [Example 14, 4-[2-(5-Fluoro-2-pyridyl)-2-hydroxy-ethoxy]-6-[5-methyl-1-[1-(oxetan-3-yl)-4-piperidyl]triazol-4-yl]pyrazolo[1,5-a]pyridine-3-carbonitrile, Isomer 2] | at least 3 fold
